{
  "source": "PubChem BioAssay AID624417",
  "about": "(National Center for Advancing Translational Sciences (NCATS), 2012)",
  "note": "Hit rate of the full screen: of about 410,000 compounds, about 6,400 (1.6%) were called active. Inconclusive results, whose numbers are uncertain, are shown with a selection of clear calls. Calls follow the shape of the dose curve; as a rule, active = well fitted inhibition curve with a large enough effect; inconclusive = small, poorly fitted or top-dose-only effect; inactive = no such curve, though single readings can be large or run the other way. Potencies of inconclusive entries are doubtful fits and often do not repeat. % is scaled to controls: 0 for no effect and ±100 for the full control effect; potency is read from the fitted curve at half-maximal effect; tags tell the direction and shape of the fitted curve.",
  "data": [
    {"target": "Glucagon-like peptide 1 receptor (Homo sapiens) (UniProt P43220)", "sequence (P43220 whole entry, looked up)": "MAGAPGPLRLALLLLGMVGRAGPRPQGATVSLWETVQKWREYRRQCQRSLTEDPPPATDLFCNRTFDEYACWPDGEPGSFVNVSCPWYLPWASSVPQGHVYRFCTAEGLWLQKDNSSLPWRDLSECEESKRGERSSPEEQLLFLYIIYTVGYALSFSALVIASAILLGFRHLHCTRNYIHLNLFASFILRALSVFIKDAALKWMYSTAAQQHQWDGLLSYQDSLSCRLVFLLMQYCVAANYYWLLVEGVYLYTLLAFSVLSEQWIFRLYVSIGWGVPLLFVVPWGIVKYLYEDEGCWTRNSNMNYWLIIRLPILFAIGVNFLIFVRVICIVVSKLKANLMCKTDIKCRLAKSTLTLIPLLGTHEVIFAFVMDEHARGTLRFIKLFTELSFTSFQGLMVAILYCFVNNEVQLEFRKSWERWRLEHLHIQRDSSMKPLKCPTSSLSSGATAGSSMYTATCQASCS", "test": "qHTS of GLP-1 Receptor Inverse Agonists (Inhibition Mode); also: nearly all actives have a fitted effect of over 55% in size", "settings": "HEK293 GLP-1R CRE-luciferase, luminescence, 24 h, GLP-1R form is constitutively active; activity change, negative = inhibition: at 38.3 µM (top of the series) unless noted", "outline": "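Seeding at 200 cells/uL, 12 h culture, 24 hr compound treatment, then luciferase reagent and a luminescence read; cells are HEK293 stably expressing a constitutively active GLP-1R plus cAMP-responsive luciferase.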", "values": [
      {"smiles": "NS(=O)(=O)c1ccc(NC(=S)NCc2cccc(Cl)c2)cc1", "Potency": "inconclusive: 28.2 µM [inhibitor, single point]"},
      {"smiles": "NC(=O)c1sc2nc3c(c(-c4ccco4)c2c1N)CCC3", "Potency": "inconclusive: 10 µM [inhibitor, partial curve, poor fit]"},
      {"smiles": "O=C(NN=Cc1ccccc1OC(F)F)c1ccc(NS(=O)(=O)c2cccs2)cc1", "Potency": "inconclusive: 28.2 µM [inhibitor, single point]"},
      {"smiles": "CC12CCC(=O)C=C1CCC1C2C(O)CC2(C)C(c3csc(N)n3)CCC12", "note": "(stereo not given)", "Potency": "inconclusive: 20 µM [inhibitor, single point]"},
      {"smiles": "CN(C)c1nc(NCc2ccccc2)nc(SCC(=O)Nc2ccc(Cl)c(Cl)c2)n1", "Potency": "inactive"},
      {"smiles": "COc1ccc(CNC(=O)C2CCCN(S(=O)(=O)c3ccc(Br)s3)C2)cc1", "note": "(stereo not given)", "Potency": "inconclusive: 2.82 µM [inhibitor, partial curve, poor fit]"},
      {"smiles": "CCCCN(C)CCN1C(=O)C2C(C(=O)Nc3ccc(OC)cc3)C3C=CC2(O3)C1C(=O)NC1CCCCC1", "note": "(stereo not given)", "Potency": "inconclusive: 31.6 µM [inhibitor, partial curve, poor fit]"},
      {"smiles": "O=C(CN1CCCCCC1)Nc1c(Cl)cc(Cl)cc1Cl", "Potency": "inconclusive: 28.2 µM [inhibitor, single point]"},
      {"smiles": "CC(=O)c1ccc(NC(=O)CCC(=O)N2CC(C)Oc3ccc(C)cc32)cc1", "note": "(stereo not given)", "Potency": "inconclusive: 28.2 µM [inhibitor, single point]"},
      {"smiles": "CCN(c1ccc(Cl)cc1)S(=O)(=O)c1nnc(NC(=O)c2ccccc2C)s1", "Potency": "inconclusive: 11.2 µM [inhibitor, partial curve, poor fit]"},
      {"smiles": "Cc1ccc2[nH]cc(C(c3ccccc3)c3ccc(C)s3)c2c1", "note": "(stereo not given)", "Potency": "inconclusive: 8.91 µM [inhibitor, partial curve, poor fit]"},
      {"smiles": "CCC(C)NC(=O)CCc1c(C)nc2c(c(C)nn2-c2ccc(C)cc2)c1C", "note": "(stereo not given)", "Potency": "inactive"},
      {"smiles": "NC(=O)CCCn1c(C(=O)c2cc(Cl)c(N)c(Cl)c2)c2ccc(C(F)(F)F)cc2[n+]1[O-]", "Potency": "inconclusive: 14.1 µM [inhibitor, single point]"},
      {"smiles": "Cc1c(Cl)cccc1NC(=O)CC(c1ccc(F)cc1)N1Cc2ccccc2C1=O", "note": "(stereo not given)", "Potency": "inconclusive: 22.4 µM [inhibitor, single point]"},
      {"smiles": "COc1ccc(/C=N/NC(=O)c2ccccc2F)cc1CN1CCN(c2ccc(F)cc2)CC1", "Potency": "inconclusive: 14.1 µM [inhibitor, single point]"},
      {"smiles": "CN(CCC#N)C(=O)COC(=O)c1ccccc1C(=O)c1ccc(Cl)c([N+](=O)[O-])c1", "Potency": "inconclusive: 28.2 µM [inhibitor, single point]"},
      {"smiles": "Cc1nn(-c2ccc(Cl)c(Cl)c2Cl)c(=O)c2ccccc12", "Potency": "inconclusive: 7.94 µM [inhibitor, partial curve, poor fit]"},
      {"smiles": "O=C(NCc1ccc(F)cc1)C(C(=O)NCc1ccc(F)cc1)c1ncc(C(F)(F)F)cc1Cl", "Potency": "inconclusive: 1 µM [inhibitor, full curve, poor fit]"},
      {"smiles": "O=S(=O)(Nc1c(O)ccc2ccccc12)c1cccc2ccccc12", "Potency": "inconclusive: 11.2 µM [inhibitor, partial curve, poor fit]"},
      {"smiles": "CCOC(=O)c1ccc(-c2ccc(/C=C(\\C#N)c3nc4ccc(C)cc4[nH]3)o2)cc1", "Potency": "inactive"},
      {"smiles": "O=C1CS/C(=N/N=C2CCCC2)N1", "Potency": "inactive"},
      {"smiles": "COc1ccc(-c2onc(C)c2C)cc1S(=O)(=O)NCc1ccc(C)o1", "Potency": "inconclusive: 5.01 µM [inhibitor, full curve, poor fit]"},
      {"smiles": "COc1ccc(/C=C2\\N=C(SC)N(c3ccccc3OC)C2=O)cc1", "Potency": "inconclusive: 0.891 µM [inhibitor, full curve, poor fit]"},
      {"smiles": "O=C(Nc1ccccc1)C1=C[C@H](c2ccccc2)C[C@H](OCCCCO)O1", "Potency": "inactive"},
      {"smiles": "CCCN1CCC(=NNc2ccc(C(=O)O)cc2)CC1", "activity change, negative = inhibition": "inconclusive: -59% [inhibitor] [at 7.66 µM]"},
      {"smiles": "O=C(NCCS(=O)(=O)NCCc1ccccc1)c1ccc2c(c1)OCO2", "Potency": "inconclusive: 10 µM [inhibitor, single point]"},
      {"smiles": "[N-]=[N+]=NC[C@H](Cc1ccccc1)N1CC[C@@H](NC(=O)OCc2ccccc2)CCC1=O", "Potency": "inconclusive: 7.08 µM [inhibitor, single point]"},
      {"smiles": "CC1(C(=O)NCc2ccc(F)c(F)c2)Cc2c(-c3cccc(C(N)=O)c3)ccnc2O1", "note": "(stereo not given)", "Potency": "inconclusive: 11.2 µM [inhibitor, partial curve, poor fit]"},
      {"smiles": "CCN(CC)c1ncnc2c1ncn2Cc1c(Cl)cccc1Cl", "Potency": "inconclusive: 14.1 µM [inhibitor, single point]"},
      {"smiles": "CC(C)c1c(C(=O)N/N=C/c2ccc3c(c2)OCO3)nnn1-c1nonc1N", "Potency": "inactive"},
      {"smiles": "COc1ccc(Cl)cc1S(=O)(=O)NCc1cccs1", "Potency": "inconclusive: 11.2 µM [inhibitor, partial curve, poor fit]"},
      {"smiles": "CCOc1ccc(/C=N/Nc2cc(N3CCOCC3)ncn2)c(O)c1", "Potency": "inconclusive: 2.82 µM [inhibitor, full curve, poor fit]"},
      {"smiles": "CCOC(=O)C1CCN(C(=O)c2cccc(Cl)c2)CC1", "Potency": "inactive"},
      {"smiles": "N#Cc1ccccc1NC(=O)C(=O)NCCc1csc2nc(-c3cccc(F)c3)nn12", "Potency": "inactive"},
      {"smiles": "CCCOc1cccc(NC(=O)c2c(-c3ccccc3)noc2C)c1", "Potency": "inconclusive: 11.2 µM [inhibitor, single point]"},
      {"smiles": "O=C1N(Cc2cccc(Cl)c2)C[C@@H]2C[C@@H](c3cccn3-c3cccnc3)N3CCC[C@@]123", "Potency": "inconclusive: 28.2 µM [inhibitor, single point]"},
      {"smiles": "CN1CCN(C(=O)c2ccc(C3SCC(=O)N3Cc3ccco3)cc2)CC1", "note": "(stereo not given)", "Potency": "inconclusive: 7.94 µM [inhibitor, partial curve]"},
      {"smiles": "CC(C)(C)c1ccc(C(=O)Nc2ccccc2NC(=O)c2ccco2)cc1", "Potency": "inconclusive: 15.8 µM [inhibitor, partial curve, poor fit]"},
      {"smiles": "CCOC(=O)C1=CCN(S(=O)(=O)c2ccccc2F)C1c1cccc(C)c1", "note": "(stereo not given)", "Potency": "inconclusive: 11.2 µM [inhibitor, single point]"},
      {"smiles": "Cc1cccc(C)c1OCc1cc(C(=O)N2CCCCCCC2)no1", "Potency": "inconclusive: 11.2 µM [inhibitor, partial curve, poor fit]"},
      {"smiles": "CCN(CC)S(=O)(=O)c1ccc(NC(=O)c2ccc(N(C)S(C)(=O)=O)cc2)cc1", "Potency": "inconclusive: 11.2 µM [inhibitor, single point]"},
      {"smiles": "Cc1cccc(C(=O)OCC(=O)N(C)c2ccccc2)c1C", "Potency": "inconclusive: 28.2 µM [inhibitor, single point]"},
      {"smiles": "CSCCC(NC(=O)c1ccccc1)C(=O)N1CCN(C(=O)c2ccccc2)CC1", "note": "(stereo not given)", "Potency": "inactive"},
      {"smiles": "COc1ccc(-c2cc(-c3c(O)c(OC)c4occc4c3OC)[nH]n2)cc1", "Potency": "inconclusive: 28.2 µM [inhibitor, single point]"},
      {"smiles": "FC(F)(F)Oc1ccccc1C(c1nnnn1Cc1ccccc1)N1CCN(C/C=C/c2ccccc2)CC1", "note": "(stereo not given)", "Potency": "inconclusive: 11.2 µM [inhibitor, partial curve, poor fit]"},
      {"smiles": "CCOc1ccc(C(=O)NCc2nc3cccnc3n2Cc2cccc(OC)c2)cc1", "Potency": "inactive"},
      {"smiles": "CCN(CC)CCN(C(=O)/C=C/c1cccs1)c1nc2ccc(F)cc2s1", "Potency": "inactive"},
      {"smiles": "C/C(CC(=O)Nc1ccc(Cl)c(Cl)c1)=N\\NC(N)=S", "Potency": "active: 11.2 µM"},
      {"smiles": "CC(C)N(C(=O)[C@H]1C[C@H](CC(=O)NCC23CC4CC(CC(C4)C2)C3)C(=O)N2CCc3c([nH]c4ccc(Cl)cc34)[C@]12C)C(C)C", "Potency": "inactive"},
      {"smiles": "Cc1ccc(CS(=O)(=O)CCC(=O)NCCc2ccccc2)cc1", "activity change, negative = inhibition": "inconclusive: -51.8% [inhibitor]"},
      {"smiles": "CC(=O)N1CCC2(CC1)CC(=O)c1cc(OCC(=O)NCc3ccc(C)cc3)ccc1O2", "Potency": "inactive"},
      {"smiles": "CCC(C)c1ccc(OCc2ccc(C(=O)O)o2)cc1", "note": "(stereo not given)", "Potency": "active: 2 µM"},
      {"smiles": "COc1cccc2c1OCC([C@@H]1C[C@H]3CN(Cc4cccc(Cl)c4)C(=O)[C@]34CCCN14)=C2", "Potency": "inconclusive: 28.2 µM [inhibitor, single point]"},
      {"smiles": "CC(C)CC(=O)NC(c1ccccc1)c1c(O)ccc2ccccc12", "note": "(stereo not given)", "Potency": "inconclusive: 11.2 µM [inhibitor, single point]"},
      {"smiles": "COCCNc1nc(NCc2cccc(OC)c2)c2sccc2n1", "Potency": "inconclusive: 22.4 µM [inhibitor, single point]"},
      {"smiles": "Cc1ccccc1-c1cccc(CN2CCN(C)C(CCO)C2)c1", "note": "(stereo not given)", "Potency": "inconclusive: 10 µM [inhibitor, single point]"},
      {"smiles": "CCCn1c(=S)[nH]c2cc(C(=O)N3CCCC(C(=O)OCC)C3)ccc2c1=O", "note": "(stereo not given)", "Potency": "inactive"},
      {"smiles": "Cc1cc(C)cc(-n2c(C)cc(C(=O)C(=O)Nc3nnc(C)s3)c2C)c1", "Potency": "inactive"},
      {"smiles": "Cc1noc(C)c1CSCC(=O)Nc1cccc(C(F)(F)F)c1", "Potency": "inconclusive: 8.91 µM [inhibitor, partial curve, poor fit]"},
      {"smiles": "CN(C(=O)Cn1cnc2onc(-c3ccc(F)cc3)c2c1=O)c1ccccc1Cl", "Potency": "inactive"},
      {"smiles": "O=C(NNC(=O)c1cc(OCC(F)(F)F)ccc1OCC(F)(F)F)c1cccc(C(F)(F)F)c1", "Potency": "inconclusive: 6.31 µM [inhibitor, partial curve, poor fit]"},
      {"smiles": "Cc1ccc(C)c(Cn2c(CO)nc3ccccc32)c1", "Potency": "inconclusive: 11.2 µM [inhibitor, partial curve, poor fit]"},
      {"smiles": "O=C(Nc1cc2c(cc1C(=O)c1cccc(Br)c1)OCCO2)c1ccccc1F", "Potency": "inactive"},
      {"smiles": "CCOC(=O)c1cc2c(=O)n3ccccc3nc2n(Cc2ccco2)c1=NC(=O)c1ccc(C)c(C)c1", "Potency": "inactive"},
      {"smiles": "CCC12C(=O)C(CC)(C(c3ccccc3)=C1c1ccccc1)[C@@H]1C(=O)N(c3ccccc3)C(=O)C12", "note": "(stereo not given in full)", "Potency": "active: 3.16 µM"}
    ]}
  ]
}
